# In the supplement of paper PMC3334620:
# Over roughly 33,000 sequences, “E-score (-0.5 to 0.5)” has its median near -0.041; the highest 2% begin near 0.37. The list shows a part of the results.
# Molecular target: T1, Ecm22 (UniProt Q05958)
# T1 sequence: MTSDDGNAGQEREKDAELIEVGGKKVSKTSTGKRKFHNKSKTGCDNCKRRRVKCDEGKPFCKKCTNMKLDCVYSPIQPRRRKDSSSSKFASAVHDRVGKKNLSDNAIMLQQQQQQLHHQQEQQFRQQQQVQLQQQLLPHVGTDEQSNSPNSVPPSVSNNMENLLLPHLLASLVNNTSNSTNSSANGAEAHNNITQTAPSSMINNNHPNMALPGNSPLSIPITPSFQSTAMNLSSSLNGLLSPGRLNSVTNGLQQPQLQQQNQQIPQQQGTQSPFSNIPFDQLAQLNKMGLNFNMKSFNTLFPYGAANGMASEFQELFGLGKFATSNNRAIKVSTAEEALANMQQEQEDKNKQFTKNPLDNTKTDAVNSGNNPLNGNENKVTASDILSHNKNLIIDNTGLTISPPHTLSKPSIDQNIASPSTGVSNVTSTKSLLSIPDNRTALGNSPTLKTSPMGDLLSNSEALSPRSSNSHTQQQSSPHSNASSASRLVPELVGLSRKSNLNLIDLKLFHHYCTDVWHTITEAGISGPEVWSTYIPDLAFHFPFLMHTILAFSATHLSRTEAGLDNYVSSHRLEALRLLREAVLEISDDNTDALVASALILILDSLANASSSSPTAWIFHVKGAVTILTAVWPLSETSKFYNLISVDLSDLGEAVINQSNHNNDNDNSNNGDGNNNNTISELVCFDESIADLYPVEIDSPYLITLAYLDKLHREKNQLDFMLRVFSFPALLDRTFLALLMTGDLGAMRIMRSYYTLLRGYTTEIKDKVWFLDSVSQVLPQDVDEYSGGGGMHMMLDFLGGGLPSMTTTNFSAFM
# Experiment: PBM E-score (8-mer binding enrichment) (E-score (-0.5 to 0.5)); higher = stronger / more preferred TF binding; most listed sequences are background and not binding sites
# Details: protein concentration: 200 nM; construct: GST-full length
# Procedure, shortened: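 PURExpress in vitro transcription/translation supplied GST-tagged yeast transcription factors, either full-length or DNA-binding domain. Applied at about 100-200 nM to universal all-10-mer Agilent arrays double-stranded by primer extension, the bound protein was detected with fluorescent anti-GST. E-scores, modified Wilcoxon-Mann-Whitney statistics, were given by the Universal PBM Analysis Suite to ungapped eight-base words pooled with their reverse complements after masliner normalisation.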
row,Sequence,PBM E-score
1,CGATTGCA,0.136
2,ACTAGTCG,-0.0405
3,CCCCTTAG,-0.15
4,CCGAGCCG,0.227
5,ATCAACCA,-0.154
6,CCGGTTAC,0.16
7,GGTCCTAC,-0.103
8,ATGATCAA,0.0409
9,ATTGCCCG,0.0752
10,ATTCTTGA,-0.0346
11,TATTGAAA,-0.0178
12,GCTGATCA,-0.0195
13,CATGGCAG,-0.153
14,AGCGCTGA,-0.0958
15,CCGCAACA,-0.0757
16,CGCATCAG,0.0331
17,CCGTTCTA,0.179
18,TGAAGGAA,-0.121
19,CGCGCCAA,0.117
20,ATATCACC,0.0983
21,ACGGGTCG,0.267
22,ATTTAATG,0.104
23,ATGTAGCC,-0.177
24,ACATTGGA,-0.209
25,AGAGCCGC,-0.197

row,Sequence,PBM E-score
1,ACGAAGCT,0.313
2,AAGCAACG,0.202
3,AACCTAGA,-0.0874
4,GAACCGCA,0.00316
5,ATGACTGA,-0.233
6,CTAGTGGA,-0.21
7,AATGCTAC,-0.00666
8,CGCATTCA,0.0952
9,GTCTCTTA,0.0595
10,AGAGGGCA,-0.402
11,GCGCCCAC,-0.143
12,ACGAAACT,0.369
13,ATATACGA,0.49
14,ATTCGTCC,0.0925
15,CGCAGCGC,-0.0542
16,AAAGTGAG,-0.0734
17,ACATGTCT,-0.102
18,ATAGCGAC,0.225
19,AAATCAAT,-0.102
20,AGGGTTAC,-0.117
21,CGGCCCCG,-0.0779
22,CTATCTAA,-0.103
23,GCAGGCAA,-0.0787
24,AGTCCAGG,-0.315
25,CGATGCAC,0.066

row,Sequence,PBM E-score
1,CAACCGCG,0.0366
2,AACAAGAT,0.0794
3,AGGGTTTC,-0.283
4,CGGTTCCA,0.119
5,GCTGTCAC,-0.196
6,GATCACAC,-0.108
7,CACTCTAG,-0.165
8,CCCGGAGG,-0.219
9,CTGAAAAA,-0.117
10,AGAACGGG,0.18
11,ACACCGCC,-0.0179
12,ACAACGTA,0.132
13,CCTTATTC,-0.125
14,GGCCCAAC,-0.13
15,ACCACATG,-0.0253
16,CCGGAACA,-0.0629
17,GCTCTGAC,-0.213
18,TAAATGAA,-0.0696
19,ACCCCGTC,-0.165
20,ACTTAGGC,-0.248
21,CTGCCAAC,-0.0937
22,AGTTAAAC,0.194
23,AACCATGC,-0.138
24,AAAGTCAA,-0.177
25,ACGGCCAG,-0.0436

row,Sequence,PBM E-score
1,GGATGGAC,-0.0459
2,CATTCTGA,-0.0836
3,ACAGTTCA,0.0913
4,ATCACTGC,0.051
5,CGCCTCCA,-0.134
6,CCTCCCGA,-0.00453
7,CTACCCGC,-0.164
8,TCACTGGA,-0.31
9,GAACGATC,0.432
10,GTCTGTAA,-0.0348
11,CACCCTAA,-0.116
12,GCGCTCAA,-0.0981
13,CTCGACTC,0.0837
14,ATGGTAAG,-0.178
15,GAAATTCC,-0.182
16,ACCTACAA,-0.0896
17,ACAGGTAC,0.168
18,TATCAGGA,0.118
19,AACGCGCC,0.126
20,AAATAGTT,-0.0664
21,CAAACATC,-0.00603
22,GCGGACGC,-0.104
23,CCCATTGC,-0.141
24,CCATATGG,0.0188
25,AAGCAGGA,-0.0106

row,Sequence,PBM E-score
1,GGCCTTAA,-0.165
2,TCTGCCAA,-0.123
3,GGGCTGTA,-0.108
4,TACCGGTA,0.0548
5,AATGCGGA,0.0872
6,AGACGATA,0.143
7,AACCAAGT,0.0954
8,CTGAGTCA,-0.123
9,ATGAGAGA,-0.0934
10,ATGTGACC,-0.0819
11,CCCCCAGC,-0.27
12,CATACCGA,0.107
13,AGACCTGC,-0.304
14,AGTCTGCC,-0.238
15,AACCGAAA,0.235
16,AAGACTTA,-0.135
17,CGACTGGA,0.137
18,GGTCCCAA,-0.153
19,CCTGGTCA,-0.311
20,CACGCATG,-0.167
21,AGATCGTG,-0.0112
22,AAGGCCCA,-0.237
23,AATCATCT,-0.222
24,CACGGCGG,-0.16
25,ACCTATCA,-0.109

row,Sequence,PBM E-score
1,AAGATAAG,-0.146
2,ACCTAGTA,-0.257
3,TTCTGCAA,0.0702
4,ATACGCAT,0.301
5,ATATGCTC,0.0994
6,GTTAGCTA,-0.115
7,GTTAAGCA,-0.0308
8,CCGGAATA,-0.0385
9,ATCAAATG,0.00866
10,GCAGACAC,0.0272
11,AGAATGCA,0.11
12,CGGCATGC,0.12
13,ACTAGGGG,-0.24
14,TGCCTACA,-0.0971
15,CGTCGTGC,0.177
16,AGGTATAA,0.211
17,GCGGGGAC,-0.152
18,GTGGTTAA,0.00113
19,AATGTAAA,-0.0309
20,AAGTGTCG,0.11
21,CGTCGGTC,0.296
22,TACTTCCA,0.0583
23,ATCCACAC,-0.129
24,CGCGCTAG,0.0304
25,GAGCACGA,0.159

row,Sequence,PBM E-score
1,ACTAATCG,0.133
2,GCCATACA,0.133
3,GATGATCA,0.0913
4,AGCTAGAT,-0.00182
5,GGCCGTAA,0.244
6,ATAGGAGA,-0.0585
7,CCCCTTGA,-0.173
8,TAGGTTCA,0.00453
9,CGAGGCCC,0.0788
10,GGACAACC,0.0333
11,CCAACGTA,0.194
12,ATCCATGC,-0.11
13,CCCTGAGA,-0.178
14,ACTGTGCC,-0.244
15,GGTTTAGA,-0.179
16,AAGATCCG,0.0903
17,CTAACGAC,0.282
18,CGTAAGAC,0.203
19,TAGTATAA,0.166
20,GCGTCCCA,-0.156
21,AAAGCCCT,-0.251
22,ATCTGGGG,-0.142
